Experimental data from PubChem BioAssay AID651820 (National Center for Advancing Translational Sciences (NCATS), 2012).
Hit rate of the full screen: of about 340,000 compounds, about 12,000 (3.5%) were called active. The inconclusive results got no clear call from the source; some entries with a clear call stand among them for comparison. Calls follow the shape of the dose curve; as a rule, active = well fitted inhibition curve with a large enough effect; inconclusive = small, poorly fitted or top-dose-only effect, or another doubt; inactive = no such curve, though single readings can be large or run the other way. No potency is given beside an inconclusive call; the fits are too rough.

Test: qHTS Assay for Inhibitors of Hepatitis C Virus (HCV)
Conditions: Huh7.5.1 HCVcc-Cre (HCVcc is cell-culture hepatitis C virus) infection, luciferase reporter, 44 h; activity change, negative = inhibition: at 41.8 µM (top of the series)
How it was run: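 1,000 cells/well; 4 h culture; + compound; + HCVcc-Cre (~0.5 moi); 44 h; luciferase substrate, RT 15 min; read 15 sec.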
% is scaled to controls: 0 for no effect and ±100 for the full control effect; potency is read from the fitted curve at half-maximal effect; tags tell the direction and shape of the fitted curve.

| SMILES | activity change, negative = inhibition | Potency |
| --- | --- | --- |
| Cc1ccc(-c2nnc(SCc3nc4ccccc4[nH]3)n2Cc2ccco2)cc1 | inactive: -22.7% | – |
| Cc1ccccc1CN1CCCC(C(=O)Nc2ccc(-c3ccn[nH]3)cc2)C1 (stereo not given) | – | inconclusive [inhibitor, single point] |
| Cc1ccc(C(=O)COC(=O)c2ccccc2NC(=O)c2ccccc2)cc1[N+](=O)[O-] | inactive: -22.7% | – |
| CCOC(=O)c1[nH]c2ccc(C)cc2c1NC(=O)CN1CCCCC1 | – | inconclusive [inhibitor, single point] |
| Cn1c(NCc2cc(Br)ccc2O)nc2ccccc21 | – | inconclusive [inhibitor, single point] |
| COc1cc2c(cc1OC)C(COc1cccc(C(F)(F)F)c1)NCC2 (stereo not given) | – | inconclusive [inhibitor, single point] |
| Cc1nc(N2CCCCC2)c2c(C)c(C(=O)Nc3ccccc3C(F)(F)F)sc2n1 | – | inconclusive [inhibitor, partial curve] |
| S=c1nc[nH]c2nc[nH]c12 | – | inactive |
| CN1CCSc2ccc(C(=O)Nc3cccc(F)c3)cc21 | – | inconclusive [inhibitor, single point] |
| COc1ccc2[nH]c3c(c2c1)CCN1C(=O)C(CC(=O)NCCc2ccccn2)C[C@H](C(=O)N2CCCCC2)[C@@]31CCc1ccccc1 (stereo not given in full) | – | active: 7.94 µM |
| CCOC(CNc1cc(C)nc2c(-c3ccccc3OC)c(C)nn12)OCC | – | inconclusive [inhibitor, single point] |
| CCOc1cc(/C=N/Nc2nc(=O)[nH]nc2C)ccc1O | inactive: -3.43% | – |
| CC(=O)c1ccc(N2CCN(Cc3cc(=O)n4c(-c5ccccc5)csc4n3)CC2)cc1 | – | active: 12.6 µM |
| O=C(N/N=C/c1ccc([N+](=O)[O-])o1)c1ccc2c(c1)OCO2 | – | inconclusive [inhibitor, single point] |
| Cc1ccc(CN(C)c2nc(-c3cccnc3)nc3ccccc23)o1 | – | inconclusive [inhibitor, single point] |
| CCOc1cc(S(=O)(=O)NCCCN2CCOCC2)c(C)cc1C | inactive: -4.05% | – |
| COC(=O)c1sc2nc(C)nc(SCC(=O)Nc3sccc3C(N)=O)c2c1C | – | active: 11.2 µM |
| COc1ccccc1N1CCN(C(=O)CSc2nc3ccccc3nc2N2CCC(C)CC2)CC1 | – | inconclusive [inhibitor, single point] |
| CCCn1cnc2c(Sc3c([N+](=O)[O-])ncn3C)nc(N)nc21 | inactive: -4.65% | – |
| COC(=O)c1sc(NC(=O)CC(C)C)c(C(=O)OC)c1C | – | inconclusive [inhibitor, partial curve] |
| COc1cccc2sc(N3CCN(C(=O)c4ccco4)CC3)nc12 | inactive: -15.9% | – |
| OCCn1c(-c2ccccc2)csc1=Nc1ccccc1 | – | inconclusive [inhibitor, single point] |
| COc1ccccc1NC(=O)N1CCc2[nH]c3ccc(Cl)cc3c2C1 | – | active: 11.2 µM |
| CC(C)(C)CC(C)(C)NCC(O)COCCOc1ccc(Br)cc1 (stereo not given) | – | active: 6.31 µM |

| SMILES | activity change, negative = inhibition | Potency |
| --- | --- | --- |
| O=C(Cc1cccc2ccccc12)N/N=C/C=C/c1cccc([N+](=O)[O-])c1 | – | inconclusive [inhibitor, partial curve, poor fit] |
| CCCCc1ncc(CN2CCCC(C(=O)c3ccc(SC)cc3)C2)[nH]1 (stereo not given) | – | inconclusive [inhibitor, single point] |
| Cc1ccccc1Cn1cnc2ccccc21 | – | inconclusive [inhibitor, partial curve] |
| COc1ccc(CNCc2cccc(OC)c2OC)cc1Br | – | inconclusive [inhibitor, single point] |
| CCN(CC)C(=O)c1ccc(NC(=S)NC(=O)CCc2ccccc2)cc1 | – | inconclusive [inhibitor, single point] |
| COCCn1c(=O)[nH]c2cc(C(=O)NCCCN3CCN(c4ccc(F)cc4)CC3)ccc2c1=O | – | active: 10 µM |
| CNC(=S)N/N=C/c1ccc(OCC(=O)Nc2c(C)cc(C)cc2C)c(OC)c1 | inactive: -13.1% | – |
| CC(=O)Nc1ccc(-c2csc(NC(=O)C3CC(=O)N(c4ccc5c(c4)OCCO5)C3)n2)cc1 (stereo not given) | – | inconclusive [inhibitor, partial curve] |
| COc1ccc(/C=C/C(=O)NCCCNC(=O)/C=C/c2ccc(OC)c(OC)c2)cc1OC | – | inconclusive [inhibitor, full curve] |
| CCC(C)Nc1ncnc2c1cnn2Cc1ccc(Cl)cc1 (stereo not given) | – | inconclusive [inhibitor, single point] |
| CCC(CC)NC(=O)c1cccc(Oc2ccccc2)c1 | – | inconclusive [inhibitor, single point] |
| CC(C)Oc1cccc(C(=O)C2CCCN(Cc3ccon3)C2)c1 (stereo not given) | – | inconclusive [inhibitor, single point] |
| CC(C)(C)OC(=O)C[C@H]1C/C=C\C[C@@H](CC(=O)N[C@@H](CO)Cc2ccccc2)C(=O)NC[C@H](c2ccccc2)OC1=O | inactive: 10.1% | – |
| CC1=CC(C)(C)NC(=S)N1c1cccc(Cl)c1 | – | inconclusive [inhibitor, single point] |
| COc1ccccc1C1CC(c2ccc(Br)cc2)=NN1C(=O)c1cccnc1 (stereo not given) | – | inconclusive [inhibitor, single point] |
| CCOC(=O)CNC(=O)c1cn(CC)c(=O)c2cc(OC)c(OC)cc12 | – | inconclusive [inhibitor, single point] |
| O=C(C1=C[C@H](c2ccc3c(c2)OCO3)C[C@H](OCCCCO)O1)N1CCN(Cc2ccccc2)CC1 | – | inconclusive [inhibitor, single point] |
| COc1cccc(Cn2cccc(NC(=O)Nc3ccc(C#N)cc3)c2=O)c1 | – | active: 3.98 µM |
| CCCNC(=O)c1cccc(S(=O)(=O)N2CC3(C)CC2CC(C)(C)C3)c1 (stereo not given) | inactive: -10.5% | – |
| Cc1ccc2cc(CN(Cc3ccco3)C(=O)NC3CCCCC3)c(=O)[nH]c2c1C | – | inconclusive [inhibitor, partial curve] |
| CCOc1ccccc1N1CC(C(=O)Nc2cccc(S(=O)(=O)N3CCCCC3)c2)CC1=O (stereo not given) | – | inconclusive [inhibitor, single point] |
| O=C(CCC(=O)NC1CCCCC1)NCc1ccc(F)cc1 | inactive: 10.4% | – |
| O=C(O)c1ccc(/C=N/N2CCN(Cc3cccc4ccccc34)CC2)cc1 | – | inconclusive [inhibitor, single point] |
| CCOc1cccc(C(=O)Nc2ccc(N3CCN(S(C)(=O)=O)CC3)cc2)c1 | inactive: -8.46% | – |

| SMILES | activity change, negative = inhibition | Potency |
| --- | --- | --- |
| CC(C)[C@H](NC(=O)OCc1ccccc1)C(=O)OCC(=O)N1CCN(c2ccccc2)CC1 | inactive: -12.2% | – |
| Cc1sc2nc(CSC(C)C(=O)Nc3cc(S(C)(=O)=O)ccc3Cl)[nH]c(=O)c2c1C (stereo not given) | – | inconclusive [inhibitor, single point] |
| COc1cc(OC)cc(C(=O)NCC(=O)NC(C)c2ccccc2)c1 (stereo not given) | inactive: -8.42% | – |
| Cn1cccc1/C=C1/C(=O)NC(=O)N(Cc2ccc(F)cc2)C1=O | inactive: 8.44% | – |
| Cn1c(-c2ccccc2)c(/C=N/NC(=O)c2ccc(O)cc2)c2ccccc21 | – | active: 10 µM |
| Cc1cccc(NC(=O)c2c(F)c(F)c(F)c(F)c2F)c1 | – | inconclusive [inhibitor, single point] |
| CCCCCCCCCCCCCCCC[N+](C)(C)C | – | inconclusive [inhibitor, single point] |
| COc1ccc(CCNc2nc(C)nc3c2nnn3Cc2ccccc2)cc1OC | – | inconclusive [inhibitor, partial curve] |
| CCCCc1nc(N2CCN(C(=O)c3ccco3)CC2)c(C#N)c2c1CCCC2 | – | active: 14.1 µM |
| COc1cc(C(=O)Nc2cc3c4c(c2)CC(=O)N4CCC3)cc(OC)c1OC | – | inconclusive [inhibitor, single point] |
| O=C1c2ccccc2C(=O)N1CCCc1nc(-c2ccc(Cl)cc2)no1 | inactive: -0.503% | – |
| COc1ccc(C(=O)NNC(=S)NC(=O)C(C)(C)C)cc1 | – | inconclusive [inhibitor, partial curve] |
| CSC1=C(C#N)C(c2ccc(Cl)cc2)C2=C(CC(C)(C)CC2=O)N1 (stereo not given) | – | active: 11.2 µM |
| COc1ccc(C2NC(=O)NC(C)=C2C(=O)OC2CCC(C)CC2)cc1 (stereo not given) | – | inconclusive [inhibitor, partial curve] |
| CCCNC(=O)c1ccc(N2CCC3(CC2)CC(c2cccc(Br)c2)=NO3)c(N)c1 | – | inconclusive [inhibitor, single point] |
| Cc1oc(-c2cc(F)ccc2F)nc1CN1CCN(c2ncnc3ccccc23)CC1 | – | active: 0.562 µM |
| CN(C(=O)c1ccc(NC(=O)Cc2ccc(NC(=O)C3CCCN(C(=O)CCc4ccccc4)C3)cc2)cc1)C1CC1 (stereo not given) | – | active: 14.1 µM |
| O=C(CSc1nc(Nc2ccccc2)nc(N2CCOCC2)n1)N1CCCC1 | – | inconclusive [inhibitor, partial curve] |
| CCOc1ccc(NC(=O)c2nnn(CC(=O)Nc3ccccc3OC)c2N)cc1 | – | inconclusive [inhibitor, full curve, poor fit] |
| C/C(=N\N=C(N)N)c1ccc(Cl)cc1 | – | inconclusive [inhibitor, partial curve, poor fit] |
| Cc1oc2c(C)c3oc(=O)c(CCC(=O)NCCN4CCOCC4)c(C)c3cc2c1C | – | inconclusive [inhibitor, single point] |
| CC1=CC(c2ccccc2)n2nc(N)nc2N1 (stereo not given) | – | inconclusive [inhibitor, single point] |
